Screen size: about 310,000 compounds; about 18,000 (5.8%) were called active. The shares of active, inactive and inconclusive entries below differ from those in the screen. The call rests on the fitted dose curve; in most records, active means well fitted inhibition curve with a large enough effect; inconclusive means small, poorly fitted or top-dose-only effect, or another doubt; inactive means no such curve, though single readings can be large or run the other way. No potency is given beside an inconclusive call; the fits are too rough.
Assay: Primary qHTS for delayed death inhibitors of the malarial parasite plastid, 48 hour incubation
Details: P. falciparum luciferase growth in erythrocytes; series mostly up to 28.7 µM; activity change, negative = inhibition: at the top concentration
Procedure, shortened: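 Cell-based growth assay: transgenic P. falciparum expressing firefly luciferase, cultured in red cells within RPMI 1640 containing 0.5% w/v Albumax, 24 mM bicarbonate and gentamycin. A drop in luciferase activity indicates inhibition.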
On the % scale 0 is the no-effect control and ±100 the full control effect; potency means the concentration at half of the fitted maximal effect; tags describe the fitted curve by direction and shape.

Question: Which “activity change, negative = inhibition” value does the source give for CN1CCN(C(=O)c2ccc(COc3ccc(C(C)(C)C)cc3)o2)CC1 here?
Answer: inactive: 1.62%

Question: For Cc1nc(C(=O)NNC(=O)Nc2ccccc2)cs1, which “activity change, negative = inhibition” value is on record?
Answer: inactive: 8.5%

Question: Which Potency does the source give for CCc1ccc(/C=C2\SC(N3CCCC3)=NC2=O)cc1 here?
Answer: inconclusive [inhibitor, single point]

Question: Which “activity change, negative = inhibition” value does the source give for Cc1ccc(NC(=S)Nc2ccc3[nH]c(=O)[nH]c3c2)cc1 here?
Answer: inactive: 3.99%

Question: With CCOC(=O)C1(CCc2ccccc2)CCN(Cc2csc(C(C)=O)c2)CC1 as the molecule, how does the Potency read?
Answer: inconclusive [inhibitor, single point]

Question: Which Potency does the source give for COc1cc(/C=N/n2c(C3CCCCC3)n[nH]c2=S)cc(Br)c1O here?
Answer: inconclusive [inhibitor, partial curve, poor fit]

Question: With Oc1c(CN2CCCCC2)cc(Br)c2cccnc12 as the molecule, how does the Potency read?
Answer: active: 2.62 µM

Question: For Nc1n[nH]c(N)c1N=Nc1ccc(F)cc1, which “activity change, negative = inhibition” value is on record?
Answer: inactive: 74.1%

Question: For CC1CCCN(CCCNC(=O)c2ccc3c(c2)N(Cc2ccccc2F)C(=O)c2ccccc2S3(=O)=O)C1 (stereo not drawn), which Potency is on record?
Answer: active: 2.08 µM

Question: Which “activity change, negative = inhibition” value does the source give for O=C(/C=C/c1ccccc1)c1ccc2c(c1)OCO2 here?
Answer: inactive: 58.1%

Question: For CCN(CC)S(=O)(=O)c1ccc(N2CCOCC2)c(NC(=O)C2CCCO2)c1 (stereo not drawn), which Potency is on record?
Answer: inconclusive [inhibitor, partial curve]

Question: With O=C(OCc1ccccc1)N1CCOCCOCCN(C(=O)OCc2ccccc2)CCOCCOCC1 as the molecule, how does the Potency read?
Answer: inconclusive [inhibitor, full curve, poor fit]

Question: For CC(Sc1nc2ccccc2c(=O)n1C)C(=O)Nc1ccc2c(c1)OCCO2 (stereo not drawn), which Potency is on record?
Answer: active: 0.147 µM

Question: Which Potency does the source give for O=S(=O)(c1ccc(SCCOc2ccc(Br)cc2)nc1)N1CCCC1 here?
Answer: inconclusive [inhibitor, single point]

Question: Which Potency does the source give for COc1cc(/C=N/N=C/c2cc(OC)c(O)c(OC)c2)cc(OC)c1O here?
Answer: active: 10.4 µM

Question: With CCS(=O)(=O)c1nnnn1-c1ccccc1S(C)(=O)=O as the molecule, how does the Potency read?
Answer: active: 9.28 µM

Question: For COCCCn1c(=O)c2ccccc2n(CC(=O)N2CCCc3ccccc32)c1=O, which Potency is on record?
Answer: inconclusive [inhibitor, partial curve]

Question: For CC(C)(C)c1ccc(NC(=O)C2CCCN(c3cnccn3)C2)cc1 (stereo not drawn), which Potency is on record?
Answer: inconclusive [inhibitor, single point]

Question: With CCc1ccc(/C=C2\SC(=S)N(CCC(=O)N3CCN(C)CC3)C2=O)cc1 as the molecule, how does the “activity change, negative = inhibition” value read?
Answer: inactive: -8.2%

Question: For CCCN(CC(=O)Nc1ccccc1C)C(=O)COC(=O)CSc1ccc([N+](=O)[O-])cc1, which Potency is on record?
Answer: inconclusive [inhibitor, single point]

Question: With CCC(=O)N(Cc1cc2ccccc2[nH]c1=O)c1ccc(OC)cc1 as the molecule, how does the Potency read?
Answer: inconclusive [inhibitor, partial curve, poor fit]

Question: Which “activity change, negative = inhibition” value does the source give for CCOc1ccc(NC(=O)CC2C(=O)N(C)C(=S)N2Cc2ccc3c(c2)OCO3)cc1 (stereo not drawn) here?
Answer: inactive: 12.4%

Question: For CCN(CC)S(=O)(=O)c1cccc(C(=O)N[C@H](C(=O)NCc2ccccc2F)C(C)C)c1, which Potency is on record?
Answer: inconclusive [inhibitor, partial curve]

Question: With CCN(CC)C(=O)CSc1nnc(COc2ccccc2)n1N as the molecule, how does the “activity change, negative = inhibition” value read?
Answer: inactive: 31.4%

Question: For CCC(C)(C)NC(=O)c1ccc2c(c1)S(=O)(=O)c1ccccc1C2=O, which Potency is on record?
Answer: inconclusive [inhibitor, single point]

Question: Which Potency does the source give for O=C(NN1CCOCC1)NC12CC3CC(CC(C3)C1)C2 here?
Answer: inconclusive [inhibitor, partial curve, poor fit]

Question: Which “activity change, negative = inhibition” value does the source give for CCc1ccc(OCc2nnc(SCC(=O)NC3CCCCC3)o2)cc1 here?
Answer: inactive: 41.9%

Question: With COc1cc(C(=O)NCc2ccc(-n3cccc3)cc2)cc(OC)c1OC as the molecule, how does the Potency read?
Answer: inconclusive [inhibitor, partial curve]

Question: For CC(Cc1ccccn1)NC(=O)c1ccc(OC2CCN(CCc3ccccc3)CC2)cc1 (stereo not drawn), which Potency is on record?
Answer: active: 11.7 µM

Question: With CCOC(=O)c1ccccc1C(=O)OCC as the molecule, how does the “activity change, negative = inhibition” value read?
Answer: inactive: -1.96%

Question: For COc1ccc(NC(=O)CSCc2cc(=O)n3nc(C4CC4)sc3n2)cc1, which “activity change, negative = inhibition” value is on record?
Answer: inactive: -0.602%

Question: For Cc1ccccc1-n1c(C)nnc1SC(C)C(=O)NCC1CCCO1 (stereo not drawn), which “activity change, negative = inhibition” value is on record?
Answer: inactive: -23.1%

Question: For O=C(Nc1cccc(F)c1)C1CCCN(S(=O)(=O)c2cnc[nH]2)C1 (stereo not drawn), which “activity change, negative = inhibition” value is on record?
Answer: inactive: 16.3%

Question: With COc1ccccc1-c1c(C)oc2c(CN3CCN(C)CC3)c(O)ccc2c1=O as the molecule, how does the “activity change, negative = inhibition” value read?
Answer: inactive: -18.4%

Question: Which Potency does the source give for O=C(NNc1ccc([N+](=O)[O-])cc1)C12CC3CC(CC(C3)C1)C2 here?
Answer: inconclusive [inhibitor, full curve, poor fit]

Question: For CCOc1ccccc1NC(=O)Nc1ccccn1, which Potency is on record?
Answer: inconclusive [inhibitor, single point]

Question: For CCOc1ccc(NC(=O)c2ccc(OCC3CCCO3)cc2)cc1S(=O)(=O)N(CC)CC (stereo not drawn), which Potency is on record?
Answer: active: 10.4 µM

Question: With COc1cc(CCCN2C(=S)NC[C@@H]2c2ccccc2)cc(OC)c1OC as the molecule, how does the Potency read?
Answer: inconclusive [inhibitor, single point]

Question: Which Potency does the source give for CC(C)Oc1ccc(C(=O)NC2CCSc3ccccc32)cc1 (stereo not drawn) here?
Answer: inconclusive [inhibitor, single point]

Question: With COc1cc(CNCc2ccccc2)c(Br)cc1OC1CCCC1 as the molecule, how does the Potency read?
Answer: inconclusive [inhibitor, single point]

Question: Which Potency does the source give for C=CCn1c(SCc2ccc(Cl)cc2)nc2cc(C(=O)N3CCC(C(N)=O)CC3)ccc2c1=O here?
Answer: inconclusive [inhibitor, partial curve, poor fit]

Question: With COc1ccc([C@H]2CC(=O)C=C(c3cccc4c3sc3ccccc34)C2)cc1OC as the molecule, how does the Potency read?
Answer: inconclusive [inhibitor, single point]

Question: For CC1(C)Cc2c(c(N3CCCC3)nc3sc(C(=O)Nc4ccccc4)c(N)c23)CO1, which Potency is on record?
Answer: active: 14.7 µM

Question: For CC(C)n1cc(-c2nc(C(=O)NN)cs2)c(=O)n(Cc2ccccc2)c1=O, which Potency is on record?
Answer: inconclusive [inhibitor, partial curve, poor fit]

Question: For CSc1nsc(SC)c1NC(=O)OCC1CCCO1 (stereo not drawn), which “activity change, negative = inhibition” value is on record?
Answer: inactive: 7.16%

Question: For O=C(NNc1ccc([N+](=O)[O-])cc1)c1ccccc1F, which “activity change, negative = inhibition” value is on record?
Answer: inactive: 16.2%

Question: For COc1ccccc1NC(=O)c1cnc(SCC(=O)NCC2CCCO2)n(C)c1=O (stereo not drawn), which Potency is on record?
Answer: inconclusive [inhibitor, partial curve, poor fit]

Question: With CCOC(=O)c1c(NC(=O)c2ccncc2)sc(C)c1C as the molecule, how does the Potency read?
Answer: inconclusive [inhibitor, single point]

From PubChem BioAssay AID504832 (National Center for Advancing Translational Sciences (NCATS), 2011)
